Laboratory results from the supplement of paper PMC10986608.
The list shows a part of the results. Many values rest on one well or one pass, so single values are uncertain.

Test system: Candida albicans DPL-15
Test: growth (OD600) after compound treatment (apparently relative to screen median) (relative growth (fraction; screen median 1.02)); DPL-15 is a caspofungin-resistant clinical isolate; higher = more fungal growth (less antifungal activity)
Details: 25 µM; RPMI 1640; 48 h; 30 °C

| SMILES | growth |
| --- | --- |
| CC(=O)OC[C@H]1O[C@H](c2ccc(-c3ccccc3)cc2)C=C[C@@H]1OC(C)=O | 0.867 |
| CO[C@H]1CCN(C(=O)c2c(O)cc(O)cc2NC2Cc3ccccc3C2)C1 | 1.09 |
| O=C(O)[C@H](Cc1ccccc1)n1nnc(-c2ccccc2)c1C#Cc1ccccc1 | 1.47 |
| CC1=NCCNC2=C1C(c1ccc3c(c1)OCO3)N(Cc1ccccc1)C2=O (centres undefined) | 1.03 |
| Cc1ccc(C2NC(=O)c3c2c(C)nn3-c2ccc(F)cc2)cc1 (centres undefined) | 1.18 |
| COc1ccc(C[C@H]2COC(=O)[C@@H]2Cc2ccc(OC)c(OC)c2)cc1OC | 0.951 |
| COC(=O)c1[nH]c2ccccc2c1[C@]12CCN(C(=O)Cc3cc(F)cc(F)c3)[C@H]1Nc1ccccc12 | 1.05 |
| COc1ccc(/C=C/NC(=O)c2ccc(OC)cc2)cc1 | 1.1 |
| Cc1nn(-c2ccc(F)cc2)c2c1C(c1ccc(F)cc1)NC2=O (centres undefined) | 1.01 |
| CC1=NCCNC2=C1C(c1ccccc1)N(Cc1ccccc1)C2=O (centres undefined) | 1.03 |
| CN(Cc1ccccc1)C(=O)c1c(O)cc(O)cc1CC(=O)CC(C)(C)C | 0.822 |
| CCc1cc2c(nc1CC)CCCN2S(=O)(=O)c1cccs1 | 0.87 |
| C=CCN1C(=O)C2=C(C(C)=NCCN2)C1c1ccccc1 (centres undefined) | 0.941 |
| C=CC1(CO)C=C(C)C2c3c(cc(O[Si](C(C)C)(C(C)C)C(C)C)cc3C(O[Si](C)(C)C(C)(C)C)[C@@H]2C)N1 (some centres undefined) | 0.938 |
| COc1ccc(N2C(=O)c3[nH]nc(CC(C)C)c3C2c2cncs2)cc1 (centres undefined) | 1.02 |
| C=C(C)CCCN1C=C(C(=O)OCC)C(c2ccccc2)NC1=O (centres undefined) | 1.05 |
| O=c1ccoc(CC23CCCCC2=Nc2ccc(Cl)cc23)c1O (centres undefined) | 0.75 |
| COc1cc(C)c(I)c(O)c1C(C)=O | 0.97 |
| CC(C)OC1=CC(=O)C(C)(C)C(=O)C1(C)C | 1.14 |
| COc1cc2c(c(OC)c1OC)[C@@]1(c3ccccc3)CCCCC[C@H]1[C@@H]2NC(=O)C(F)(F)F | 1.17 |
| CO[C@@H]1[C@H](O)CC[C@]2(O)CN(CCc3ccccn3)[C@](C)([C@H](O)CC=C(C)C)[C@@H]12 | 1.18 |
| O=C1CC2(CCCCC2)CNC(=O)c2cccc(c2)-c2cc(n[nH]2)CCCCCCN1 | 0.956 |
| COC(=O)C(CC(C)(C)CCOS(=O)(=O)NC(C)(C)C)N(C(=O)OC(C)(C)C)C(=O)OC(C)(C)C (centres undefined) | 1.04 |
| Cc1cc(C)cc(-n2nc(C(C)C)c3c2C(=O)NC3c2ccc(F)cc2)c1 (centres undefined) | 0.997 |
